Measured values published in the supplement of paper PMC3334620.
The full ranking holds about 33,000 sequences; the median of “E-score (-0.5 to 0.5)” is about -0.012, and the highest 2% start at about 0.27. The list shows a part of the results.

biological target: T1, Vhr1 (UniProt P40522); assay: PBM E-score (8-mer binding enrichment) (E-score (-0.5 to 0.5)); higher = stronger / more preferred TF binding; most listed sequences are background and not binding sites; details: protein concentration: 200 nM; construct: GST-full length
T1 sequence: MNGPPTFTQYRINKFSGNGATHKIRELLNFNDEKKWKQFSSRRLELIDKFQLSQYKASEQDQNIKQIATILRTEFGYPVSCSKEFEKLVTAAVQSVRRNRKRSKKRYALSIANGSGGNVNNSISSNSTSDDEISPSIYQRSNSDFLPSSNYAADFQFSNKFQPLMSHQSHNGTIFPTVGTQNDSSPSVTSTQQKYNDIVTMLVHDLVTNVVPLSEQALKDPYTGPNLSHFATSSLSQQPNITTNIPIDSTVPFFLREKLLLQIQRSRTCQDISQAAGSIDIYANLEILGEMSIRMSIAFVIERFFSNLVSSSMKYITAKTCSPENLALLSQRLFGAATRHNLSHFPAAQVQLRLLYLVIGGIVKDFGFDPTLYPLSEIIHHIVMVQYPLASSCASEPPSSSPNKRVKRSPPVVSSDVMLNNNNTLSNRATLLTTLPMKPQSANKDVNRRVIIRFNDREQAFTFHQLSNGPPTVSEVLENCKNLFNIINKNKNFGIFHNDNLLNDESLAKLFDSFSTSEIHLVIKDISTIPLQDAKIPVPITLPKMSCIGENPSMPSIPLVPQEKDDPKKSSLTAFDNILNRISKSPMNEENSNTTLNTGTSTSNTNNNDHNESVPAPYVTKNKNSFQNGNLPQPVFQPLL
How it was run: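 Masliner-normalised scans of fluorescent anti-GST signal were the basis for scoring. That signal came from GST-tagged yeast transcription factors applied at about 100-200 nM to double-stranded universal all-10-mer Agilent arrays on fresh or once-stripped slides. Each ungapped eight-base word, pooled with its reverse complement, received an E-score from the Universal PBM Analysis Suite.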

First: ATTGCCAA
Second: GTGAAGCA
The “PBM E-score” value of the first is higher: -0.0455 for the first, -0.137 for the second.

Going from GCCAAAGA to ACAGGCAA, the “PBM E-score” value rises from -0.305 to -0.0839.

Going from CATAGGGC to GACGGGTA, the “PBM E-score” value rises from -0.162 to -0.133.

First: CTTTTGGC
Second: AATGCAAC
The “PBM E-score” value of the first is lower: -0.283 for the first, -0.0181 for the second.

Going from TAATTCGA to ATACTTAA, the “PBM E-score” value falls from -0.0539 to -0.225.

Going from CTGACATC to ATTTCAGC, the “PBM E-score” value falls from 0.0361 to -0.107.

First: CCGCAGTA
Second: ACATTAGT
The “PBM E-score” value of the first is lower: 0.0424 for the first, 0.116 for the second.

First: GTAAGCAA
Second: TACGAGGA
The “PBM E-score” value of the first is lower: -0.0299 for the first, 0.0624 for the second.

Compared with AATACTTA, ACCTGGGA is higher in “PBM E-score” value: -0.125 for the first, 0.137 for the second.

Going from CAGTTTAA to CTCCTCAG, the “PBM E-score” value rises from -0.224 to -0.08.

Going from TCCGTCGA to GTCATCGA, the “PBM E-score” value rises from 0.0957 to 0.205.

Going from TCGAAACA to CTTCCAGC, the “PBM E-score” value falls from 0.116 to -0.279.

Compared with CTATAAGA, GCCCTTAC is lower in “PBM E-score” value: -0.0546 for the first, -0.259 for the second.

Going from ACCACCAG to CAGGGGCC, the “PBM E-score” value falls from 0.215 to -0.184.

First: ACTCGAGA
Second: GCGGGCAC
The “PBM E-score” value of the first is higher: 0.256 for the first, 0.154 for the second.

Compared with AGAGGTCG, AGCTTTTC is lower in “PBM E-score” value: -0.0286 for the first, -0.246 for the second.

Compared with CTTGTAAC, AGGTTACG is lower in “PBM E-score” value: 0.145 for the first, -0.215 for the second.

First: CTCGAGTA
Second: ATGCTTTA
The “PBM E-score” value of the first is higher: 0.2 for the first, -0.0608 for the second.

Going from TCCTGCGA to GGCGCGCA, the “PBM E-score” value rises from 0.111 to 0.121.

Going from CGGAGGTA to CGGATTGA, the “PBM E-score” value rises from 0.0787 to 0.132.

First: AACGTGAC
Second: CGGTAGAA
The “PBM E-score” value of the first is higher: 0.00812 for the first, -0.313 for the second.

Going from ATTGACGG to CCGTTAAG, the “PBM E-score” value falls from -0.0802 to -0.102.

Going from GATCAGCC to TGCAATAA, the “PBM E-score” value falls from 0.0261 to -0.0029.

Going from AATCAGTG to AATGATGC, the “PBM E-score” value rises from 0.0903 to 0.0924.

First: AGCAAAAC
Second: AGTTTGGG
The “PBM E-score” value of the first is lower: -0.0538 for the first, 0.181 for the second.

First: AGCGGATC
Second: AAGTGGTC
The “PBM E-score” value of the first is higher: 0.134 for the first, -0.0588 for the second.

Going from CTGCCATC to GAGGTACC, the “PBM E-score” value falls from 0.0703 to -0.0338.

First: CGCATCTA
Second: CATGTCCC
The “PBM E-score” value of the first is higher: 0.106 for the first, -0.0442 for the second.

First: AAATTATG
Second: ACCCGCTA
The “PBM E-score” value of the first is lower: -0.143 for the first, -0.0506 for the second.

Going from AGAAGTAA to ATTCTGTA, the “PBM E-score” value rises from -0.194 to -0.046.

Compared with CGACACCC, AAGGTAGA is lower in “PBM E-score” value: 0.147 for the first, -0.274 for the second.

First: AGATTTAA
Second: CACAGGTG
The “PBM E-score” value of the first is lower: -0.133 for the first, 0.123 for the second.

Compared with CTGCCCAA, GTTGACAA is higher in “PBM E-score” value: -0.0128 for the first, 0.0308 for the second.

First: ATACGTGC
Second: AACTACCC
The “PBM E-score” value of the first is higher: 0.145 for the first, 0.0648 for the second.

Compared with CTCGAATA, GAGTTGCA is higher in “PBM E-score” value: -0.247 for the first, -0.0728 for the second.

Compared with CCGCACAA, ATGCACCG is lower in “PBM E-score” value: -0.0159 for the first, -0.0282 for the second.

First: AAAGAATT
Second: CTAAGGCA
The “PBM E-score” value of the first is lower: -0.206 for the first, -0.113 for the second.

First: ACACGCGC
Second: AATCGTAG
The “PBM E-score” value of the first is higher: 0.112 for the first, -0.0117 for the second.

Compared with CGTCCCAC, AGCTATCA is lower in “PBM E-score” value: 0.0371 for the first, 0.0299 for the second.

First: GTCCAGAC
Second: CAGGGTAG
The “PBM E-score” value of the first is lower: -0.0483 for the first, -0.018 for the second.

First: AGTCTACG
Second: AGCAACAC
The “PBM E-score” value of the first is lower: -0.0825 for the first, 0.0703 for the second.

Going from GGTCCACC to GTAAGCAC, the “PBM E-score” value rises from -0.123 to -0.114.

Compared with TACAAGAA, CTAGTCAC is higher in “PBM E-score” value: 0.0257 for the first, 0.34 for the second.

Going from CCGGGCTA to GAAAGAAA, the “PBM E-score” value rises from -0.0844 to -0.0351.

Going from GCTACTGA to CAGTGACC, the “PBM E-score” value falls from 0.134 to 0.0882.

Going from CCTGCAAA to AACGGTAA, the “PBM E-score” value rises from -0.293 to -0.0577.

Compared with ACTCCCGA, GTAGGGTA is higher in “PBM E-score” value: 0.0297 for the first, 0.0298 for the second.

Compared with CTCCCGTA, AGCCGAAA is higher in “PBM E-score” value: -0.122 for the first, -0.108 for the second.

Going from CGCTGACA to GGCTTGCA, the “PBM E-score” value rises from 0.0209 to 0.0962.

Compared with GTGCTAAC, AATTTACC is higher in “PBM E-score” value: -0.104 for the first, -0.103 for the second.

Going from TGGATTAA to ACATAGAG, the “PBM E-score” value rises from 0.0399 to 0.0621.

First: CAGGAAGA
Second: ACGTCTGA
The “PBM E-score” value of the first is lower: -0.116 for the first, 0.0117 for the second.

Compared with ACAATGCT, CTGACACC is higher in “PBM E-score” value: -0.0282 for the first, 0.0756 for the second.

Going from ACGGACCA to ATCATATA, the “PBM E-score” value rises from -0.0546 to 0.221.

Compared with CCACAATC, CTCCTATA is lower in “PBM E-score” value: 0.149 for the first, -0.0775 for the second.

Compared with CGTGCCTC, GAACTGAA is lower in “PBM E-score” value: 0.0795 for the first, -0.0783 for the second.

Compared with TAAGGACA, GCACTTAC is lower in “PBM E-score” value: -0.0737 for the first, -0.0973 for the second.

Going from AGTCCGGC to CCTCGCTC, the “PBM E-score” value rises from 0.0728 to 0.0996.

Going from TGGTTCAA to ACGTGACT, the “PBM E-score” value rises from 0.289 to 0.41.

Compared with CCTAGCAA, GACACGAC is higher in “PBM E-score” value: -0.0178 for the first, 0.216 for the second.

Compared with CAAAGAGG, GATTCATA is higher in “PBM E-score” value: -0.0673 for the first, 0.154 for the second.

Going from AATCGACT to CAATAGCC, the “PBM E-score” value falls from 0.014 to -0.0353.

First: CTAGGAGC
Second: GCCCCCAA
The “PBM E-score” value of the first is higher: -0.12 for the first, -0.239 for the second.

First: ACATTGGT
Second: GGTAGAAC
The “PBM E-score” value of the first is higher: -0.125 for the first, -0.197 for the second.

Going from ACTATAAG to GAGGTGGC, the “PBM E-score” value falls from 0.0069 to -0.141.

First: CGACCGCA
Second: AATGACTA
The “PBM E-score” value of the first is lower: -0.00903 for the first, 0.353 for the second.

First: AAGATGAT
Second: ATGTGGGG
The “PBM E-score” value of the first is higher: -0.0576 for the first, -0.0749 for the second.

First: AGCTGTAG
Second: CCCGTCGA
The “PBM E-score” value of the first is higher: 0.132 for the first, 0.0174 for the second.

Compared with GATAAAAA, AAAGTGTC is lower in “PBM E-score” value: -0.032 for the first, -0.136 for the second.

First: ACTATGGA
Second: AGACTTTG
The “PBM E-score” value of the first is higher: 0.0575 for the first, -0.271 for the second.

Compared with AGGGGGGG, ACTGCTAG is higher in “PBM E-score” value: -0.261 for the first, -0.0984 for the second.

Going from AATTTTGA to GATCAGTA, the “PBM E-score” value rises from 0.00148 to 0.121.

Going from CCAAGGAA to CGAATGAA, the “PBM E-score” value rises from -0.156 to 0.0313.

First: CTTTTGCC
Second: GGACAGCA
The “PBM E-score” value of the first is higher: 0.0594 for the first, -0.0306 for the second.

First: ATTTCCTG
Second: GAGACCCC
The “PBM E-score” value of the first is lower: -0.032 for the first, 0.0929 for the second.

First: ATTTTTTC
Second: ATATACTG
The “PBM E-score” value of the first is lower: -0.263 for the first, 0.176 for the second.

Compared with AGGCAAGC, CCAAGTAG is higher in “PBM E-score” value: -0.288 for the first, -0.0526 for the second.

Going from CCTGGTCG to CGAGATTC, the “PBM E-score” value rises from -0.0864 to 0.144.

Compared with CTGGCTGC, CGTCCCTA is lower in “PBM E-score” value: -0.021 for the first, -0.129 for the second.

First: CATGATAC
Second: CCAACTGA
The “PBM E-score” value of the first is higher: 0.228 for the first, 0.0392 for the second.

First: CGTCATAA
Second: AAACATGT
The “PBM E-score” value of the first is lower: 0.016 for the first, 0.103 for the second.

Going from AAATCCAC to GTTGCACA, the “PBM E-score” value rises from -0.155 to 0.0803.

Compared with CAAAATTA, CCCCAAGG is lower in “PBM E-score” value: -0.101 for the first, -0.104 for the second.

First: CTGCTTCA
Second: ACGGAATA
The “PBM E-score” value of the first is lower: -0.21 for the first, 0.109 for the second.

Going from ACGCCGGA to CCCGTCGC, the “PBM E-score” value rises from -0.00963 to 0.136.

First: AAACACCC
Second: ATTCACAG
The “PBM E-score” value of the first is lower: -0.0796 for the first, -0.0154 for the second.
